# From the supplement of paper PMC11417369
# ± gives the standard deviation of the averaged measurements. The list shows a part of the results.
# System: PfAP2-LT AP2 domain (GST-tagged)
# Assay: gcPBM binding intensity (ln(normalized median fluorescence intensity)); higher = stronger DNA binding
# In short: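 GST-tagged P. falciparum DNA-binding domains produced in E. coli were incubated for 1 h on an Agilent 4 × 180k array of primer-extended double-stranded 36-bp intergenic genomic probes with negative controls. Binding intensity is the highest Masliner-normalised natural-log median intensity across replicate spots of either probe orientation, with bound protein detected by Alexa488 anti-GST antibody at 488 nm.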
row,Sequence,gcPBM binding intensity (ln)
1,AGCTTGTGGATGCAGGTGCTACATTTGTTCTATAAT [GTGCAC_site9645],8.95 ± 0.34
2,AATTTAATATAATGCACACATAAAAAAAAAAAATTC [CACACA_site1504],8.96 ± 0.49
3,TATAAAAATATTTCTACACACATTAAAATATATATA [CACACA_site4770],8.7 ± 0.39
4,CATTTGCCCAGGCACACACACATAAAAAGAAAAATA [CACACA_site356],9.43 ± 0.57
5,AATGAAAGGATGCTGTGTACATATATATATATATAT [XGTACX_site7901],9.94 ± 0.32
6,TTTTTTTTGTGTTCAAGTACAAAATTTTAAAGGTCA [XGTACX_site4011],8.28 ± 0.42
7,TATATATATATATAAGCACACAAACAAAAAAAATTA [CACACA_site9293],8.97 ± 0.35
8,GGTTATTTCACAGAATGTACTTATTATATATAAAAT [XGTACX_site8886],8.69 ± 0.38
9,AAGATAAATTATTATAAATCAATTGTGCCAACAATA [CACACA_negctrl_site144],8.49 ± 0.45
10,AATATAAATAAAAACACACACACACCGATATATATA [CACACA_site5283],10.2 ± 0.11
11,AAGATTAGGTTAATTAGTACTTATTATATTGTAATG [XGTACX_site3653],8.57 ± 0.49
12,GATCCATTATTGATCCGTACTTATTCATGTTATATA [XGTACX_site5946],8.91 ± 0.51
13,TATATATATATATGTATGCACTTTAATTTTATAAGG,9.17 ± 0.35
14,TATATATGTATATATACACACAACGGTTATAAATAT [CACACA_site1128],9.16 ± 0.29
15,TGTTATAAGATTTATGTACACACATATACACCCCTC [CACACA_site8141],9.3 ± 0.33
16,AATGTAGAAATGGGTGCACACACATATATAATATAT [CACACA_site8799],9.57 ± 0.48
17,AATGTGTAGACACGCACACACAAAAAAATATATATA [CACACA_site5595],9.8 ± 0.55
18,GTTTTATTTTCAATGTGTACTTATTATTTGATATAC [XGTACX_site6402],9.04 ± 0.47
19,CATTTGCACCCGCACACACACATAAAAAGAAAAATA [CACACA_site4350],9.66 ± 0.53
20,TAATTTTTTTTAATAACACACATATAAATATAAATA [CACACA_site6521],8.31 ± 0.41
21,AACATTGATAAATATAAACACACGAAAACAGACATA [CACACA_site490],9.31 ± 0.44
22,GTACCTATTTCATACACACACACACCCAAACAAACA [CACACA_site976],9.96 ± 0.18
23,CATATTATTATTTTGGTGCATACTTATATATATTTT,8.85 ± 0.4

row,Sequence,gcPBM binding intensity (ln)
1,GAAACAATTTGATATTGTACATAAATAAATAAAAAC [XGTACX_site8869],8.89 ± 0.54
2,CTTGTACCTAGAAATACACACAATTCTATAACTTAT [CACACA_site7355],8.87 ± 0.42
3,TCATTTTTTTGTTTGGTGCGACTTGAAAATTTGATT,8.85 ± 0.37
4,TTGTACATCTTTTGCACACGTAATGTTATTATAATA [CACACA_site1258],9.07 ± 0.31
5,TTATAACTTTTGAGCACACACAAGCATATAAATATA [CACACA_site6933],8.96 ± 0.47
6,AAATACTGTAAAAAAGCATGCCACTAATAATAATTA [TGCATGCA_site759],9.02 ± 0.5
7,AGAGAATAAATATAAAGTACATATATAAATATATAT [XGTACX_site5055],8.79 ± 0.49
8,ACATATACAAAACACACACACAACGTTTTAATAAAT [CACACA_site1979],9.85 ± 0.35
9,ATGTTATAAATCTTAATATATATATGCAAAAGAGAA [XGTACX_negctrl_site521],8.71 ± 0.4
10,GTATATAAAAATTCATGTACATATTATTATTTTTAA [XGTACX_site658],8.5 ± 0.45
11,ACATATATATAATATATATATCATCATATTTTCTTA [CACACA_negctrl_site853],8.64 ± 0.47
12,TGTGTGTGTATATGTGTGCACATATAAAATAGAAGA [GTGCAC_site9714],9.95 ± 0.28
13,ATATGTGTTATTTATACATGCAGAAGAATATCTATT [TGCATGCA_site828],8.84 ± 0.38
14,CATACATTTAAAAAGTGTACGTATATGAAAAAAGGA [XGTACX_site6512],8.82 ± 0.39
15,ACCTTTGTAGTTGGTCCACACACATATATGGAAGAA [CACACA_site8351],9.18 ± 0.38
16,CTCAATATTATTACTACACACAAATTAAAATTTTCC [CACACA_site4203],8.69 ± 0.45
17,AATAATCATGATCAAAGTACGTATGATTAAAAAAAA [XGTACX_site4916],8.96 ± 0.5
18,TATATGTAAATGGACACACACATATATATATATATA [CACACA_site3659],10 ± 0.13
19,TATGACCTTAGTAATTGTACACAAACATATTAATAT [XGTACX_site3340],8.79 ± 0.4
20,GAGTATATGATATATATATATATATAAAAAAAAAAA [GTGCAC_negctrl_site99],9.4 ± 0.48
21,TTGAGTTGTATAAAAAGTACAAGGTTTTAACTAAAT [XGTACX_site1447],8.79 ± 0.45
22,TTATAATATTCATAAGGTACAGTTTATATATGTTAT [XGTACX_site8442],8.68 ± 0.4
23,ATATATATTATATGCACACTAATAAGACTATTTAAA [CACACA_site3554],8.75 ± 0.37

row,Sequence,gcPBM binding intensity (ln)
1,GTATATGTACTATACGCACACACACCCACATATATA [CACACA_site9062],9.85 ± 0.24
2,CGTATATCACCAACTAGTACATATAAATAAATAAAT [XGTACX_site8837],8.89 ± 0.47
3,ATATAGATTCGACACACACACAAAAAAAAAAAAAAA [CACACA_site7677],9.38 ± 0.49
4,GTACCTATTTCATACACACACACACGCAAACAAACA [CACACA_site6590],9.77 ± 0.25
5,TGGTATATTATTTTTTGTACACATAAATGAAACATT [XGTACX_site5345],8.62 ± 0.47
6,ATATATATATATATATGTACATATTATTATTTTGAT [XGTACX_site4752],9.575 ± 0.0071
7,ATATATATAATAAACACACACATATACATAGATGTA [CACACA_site5841],9.29 ± 0.21
8,ATATATATGTATACATGTACATATTTTATTATGTGC [XGTACX_site7207],9.02 ± 0.4
9,GTGATTAATATATACACACATACATATATATATATA [CACACA_site2817],9.6 ± 0.028
10,TCTTTTAACACATGTGATATTATTTAATAACAATAA [CACACA_negctrl_site339],8.45 ± 0.4
11,GGTATACACAAGTATACACACATATAAATATAAATA [CACACA_site7511],9.16 ± 0.49
12,CTTTTATAATTCATATGTACTTATTTTTAACATAGG [XGTACX_site7808],8.64 ± 0.49
13,AAGAATAACTTTTATACATGCAGCATAATATATTGT [TGCATGCA_site605],8.81 ± 0.38
14,TGTACATATATATATATATATGTTACTGAAATAAAA [CACACA_negctrl_site1658],8.8 ± 0.35
15,AATAACCACAGACACACACACATATAAATATAAATA [CACACA_site7631],10 ± 0.46
16,ACTGTAATATTGAAAGTGCATTAAAGTGTATATTAT [GTGCAC_site9970],8.94 ± 0.45
17,TTATTTTATTTAGGGTGTACCCAATTTTTCCATATG [XGTACX_site4957],8.68 ± 0.61
18,TCCTATAATTTTTTAATCAAAATATTTTATCCTTTG [CACACA_negctrl_site793],8.43 ± 0.59
19,ATTTATATTTATAAATGTACACATATATATTTCATT [XGTACX_site2723],8.84 ± 0.35
20,AAAAATTTTTTACATCGTACAGATATATATAATAAA [XGTACX_site3331],8.38 ± 0.45
21,TAATTTTTTTAAAAGCGTACATTTAAAAAAAAATAT [XGTACX_site2736],8.21 ± 0.42
22,TTACAGATATTTATCTGTACATATATTTAAAAATAT [XGTACX_site7431],8.49 ± 0.45
23,AAAAGTAAAAAAAAAAAAAGTAAAAAAAAAAAAAAA [CACACA_negctrl_site389],8.32 ± 0.54

row,Sequence,gcPBM binding intensity (ln)
1,TCTTATCATTTTAAATCACACACATATATATATATA [CACACA_site8925],9.23 ± 0.2
2,TTTTTAAATTCTTTAATATGTTTTATATATCAAAAT [CACACA_negctrl_site75],8.21 ± 0.52
3,TTTATATATATAAATATGTAGATAACAATATTCTGA [TGCATGCA_negctrl_site554],8.3 ± 0.41
4,ATACATAAATTTTGTACACACAAAAAAAAAAAAGCT [CACACA_site1351],9.15 ± 0.43
5,TTATTCCTTTTCCTTTTTTTTTTTTAACCAAAAAAA [CACACA_negctrl_site309],8.22 ± 0.47
6,AAAATATACATATATGCATGCATATAAATAAAAAAA [TGCATGCA_site812],9.05 ± 0.33
7,TATATATATTTATGCACACAAAATATATTATAGAAT [CACACA_site3740],8.89 ± 0.28
8,AATGTTTATTTTGTTTGTACATAAAATGAATAAAAT [XGTACX_site1456],8.46 ± 0.48
9,GTTATATATTTTTATGCATGCATTTTTAAATATATA [TGCATGCA_site175],9.01 ± 0.3
10,GTTTTTTTGTTTTAAAGTACTTAAAAAAAAAATATA [XGTACX_site6998],8.2 ± 0.33
11,GATAAAACGTTATGCACACGTACGTGAGTATTTATA [CACACA_site1570],9.18 ± 0.38
12,AATGATAAATAAAAAGCATGCAACAAATAAAAATAA [TGCATGCA_site453],9.23 ± 0.56
13,AACAAAACTTTGGATACATGCAAAATTTTTAAATGA [TGCATGCA_site249],8.65 ± 0.5
14,TTACAAAATAAGAGGCACAAACACAAAAAAAAATAA [CACACA_negctrl_site574],8.83 ± 0.45
15,AAAAAAAAAAGACACACACACAAAAAAAGATATATA [CACACA_site6645],9.9 ± 0.38
16,TAGAATAAGATAGATATACACACCATTATAAATATA [CACACA_site2500],8.98 ± 0.52
17,TGTAAAAAATTTAACACACACATATATATATATATA [CACACA_site2585],9.81 ± 0.2
18,ATTACAATATATACGTGTACATATTACCACCGCTAC [XGTACX_site2308],9.09 ± 0.42
19,ATAAAAATATTACGCACACACAAACTTATTCATTAT [CACACA_site1969],9.49 ± 0.28
20,TTGTTCAAACAAAAAATAAAATAATTGAAAATAAAA [CACACA_negctrl_site812],8.46 ± 0.59
